Assay results taken from the BET-seq Pho4 binding data (Le et al. 2018).
The other results are listed elsewhere or left out. The energies were worked out here from pooled read counts, against the library average; single values are noisy.

The sequences below were run against T1, Pho4 (S. cerevisiae) (UniProt P07270) (assay: relative binding free energy (BET-seq); higher = weaker binding). Conditions: reference: library average.
T1 sequence: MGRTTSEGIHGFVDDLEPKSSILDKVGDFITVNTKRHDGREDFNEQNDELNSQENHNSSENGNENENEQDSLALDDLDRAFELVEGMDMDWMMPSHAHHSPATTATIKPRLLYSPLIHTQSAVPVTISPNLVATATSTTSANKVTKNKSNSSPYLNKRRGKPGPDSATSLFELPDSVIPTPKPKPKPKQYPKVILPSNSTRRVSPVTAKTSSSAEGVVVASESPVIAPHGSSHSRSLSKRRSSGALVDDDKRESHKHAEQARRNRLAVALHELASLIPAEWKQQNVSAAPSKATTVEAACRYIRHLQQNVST

Sequence | relative binding free energy [kcal/mol]
TGTTTCACGTGAGGTC | 0.43
AAGTTCACGTGTACGT | 0.28
TCTTGCACGTGATCGT | 0.14
CGTGTCACGTGGGTAC | -0.02
GGGTCCACGTGTAGAG | 0.24
GGTTGCACGTGGGGGT | -0.08
GGGAACACGTGAGGAT | 0.32
GATGGCACGTGTGCGC | 0.02
AGTTTCACGTGATGTC | 0.18
GATTACACGTGGTGAG | 0.16
TGAGGCACGTGAAGGA | 0.16
GCTCGCACGTGTAGGG | 0.09
TGTATCACGTGCGAAG | 0.11
ATTGTCACGTGATTAA | 0.31
GTTAGCACGTGTGTTG | -0.03
ATAGTCACGTGTGGAA | 0.11
GTGCTCACGTGGTGAG | 0.28
GGCGTCACGTGGGCTG | -0.09
TTGTTCACGTGTGCGT | 0.18
TGGCGCACGTGGAGGG | -0.22
TGTGTCACGTGGCGCA | -0.04
TAGGGCACGTGACGTA | -0.2
AGCGACACGTGTTGGG | -0.03
ATCATCACGTGCAGGT | 0.29
AAGATCACGTGAAGGG | 0.23
TGTTGCACGTGGACGA | -0.01

Sequence | relative binding free energy [kcal/mol]
ACATGCACGTGTGTGG | 0
AGGGGCACGTGGGAGT | -0.15
TTGTTCACGTGGAGGC | 0.25
TTAAACACGTGTTTCG | -0.13
AATTTCACGTGTGAGA | 0.38
AGGTACACGTGATGGC | 0.19
TCGTACACGTGGGGAA | -0.02
ATGCTCACGTGGTAAT | 0.28
TTTGGCACGTGTATAA | -0.08
GACTTCACGTGGTGTT | 0.2
TGCTGCACGTGATATG | 0.04
CGGTTCACGTGTTGAG | 0.13
AATAACACGTGATGGT | 0.17
ATCATCACGTGGTGGG | 0.12
TTAAGCACGTGCGTTA | -0.18
AGGTGCACGTGGCGGA | -0.07
GGGTTCACGTGTTCTG | 0.27
CGGGGCACGTGTAGGC | -0.09
ATGTCCACGTGTTGGA | -0.03
ATTAGCACGTGGGATC | -0.17
TGGCACACGTGAAGGG | 0.29
TTATCCACGTGGAGGG | -0.02
ATTTCCACGTGGTCGT | -0.08
TTATTCACGTGGAGTT | 0.31
TGGTACACGTGGGGCG | -0.01
ACTGTCACGTGGTGAT | -0.07

Sequence | relative binding free energy [kcal/mol]
AGGTTCACGTGTCTGG | 0.24
GGTTTCACGTGATATA | 0.27
ACGGGCACGTGTAGAT | 0.16
CTGTGCACGTGCGTGG | -0.15
ATTTGCACGTGAAGAG | 0.16
TTGCGCACGTGGAAGA | 0.12
TGGTGCACGTGAACTA | 0.32
GGTATCACGTGGCATT | 0
TTCGTCACGTGTTGAG | 0.07
ACTCTCACGTGGGGTG | 0.16
TTCTGCACGTGTTTAT | -0.04
ACGGCCACGTGGTTGG | -0.06
TTGTTCACGTGCAGTC | 0.33
CTTAGCACGTGGCGTG | -0.17
ATATTCACGTGTCATA | 0.21
TCGCGCACGTGTTAGG | -0.02
CGAAACACGTGGGGTT | -0.14
TTAGGCACGTGTTTAG | -0.2
GTTTGCACGTGGTCTC | 0.08
CGGTTCACGTGGGGCC | 0.19
GGCCGCACGTGGGAGT | -0.12
TTGGCCACGTGAATGG | 0.15
TGTCACACGTGTTAGA | 0.24
GCTTGCACGTGATTGT | 0.14
AAATTCACGTGCGGTT | 0.29
AGTCGCACGTGTATGG | -0.02

Sequence | relative binding free energy [kcal/mol]
AGTATCACGTGTTGAT | 0.17
TTTCTCACGTGTGTTT | 0.2
AGTGACACGTGGGGAC | -0.22
CGCGGCACGTGTTGGT | -0.11
AAAGTCACGTGGGACT | 0.22
AGCAACACGTGTTGGT | 0
CGTATCACGTGTAGGA | 0.07
ATATTCACGTGGTGTG | 0.03
GGGGGCACGTGGACGA | -0.14
TCGTCCACGTGATGGG | 0.16
TTGTTCACGTGACGAA | 0.26
AGTGTCACGTGTTCGA | 0.06
TGGGTCACGTGTCGCG | 0.08
ATGTACACGTGTTTCT | 0.05
GGGTTCACGTGCGCGT | 0.28
GCCTGCACGTGAGGGG | 0.17
TGTGTCACGTGAAGTT | 0.26
TTCGACACGTGGTAGG | 0.02
TGTGGCACGTGGCTAA | -0.34
GGGGGCACGTGGTCTT | -0.18
CTGTTCACGTGGTATT | 0.17
AAGGGCACGTGGATTA | -0.13
TCAGACACGTGGGGGG | -0.17
TGGATCACGTGGGCAA | -0.04
GTGCACACGTGATGGT | 0.1
TTTGACACGTGAGGTA | 0.24

Sequence | relative binding free energy [kcal/mol]
GGGTACACGTGGTTTA | 0.19
CATGTCACGTGGGGTG | -0.03
GAGGACACGTGCGGGG | 0.03
TCAAGCACGTGGAGGT | -0.03
AAGTGCACGTGTACGT | 0
AGTTACACGTGTTCTA | 0.29
TGGTGCACGTGGTCGT | -0.08
GGAGGCACGTGGAAAG | -0.02
TGTTTCACGTGCTCAT | 0.15
ATAAGCACGTGTGTAG | -0.1
GCCATCACGTGTGGTG | 0.24
AATGACACGTGTGGGC | 0.13
CGGCACACGTGGTGAT | 0.09
TATGACACGTGCGTGT | -0.05
GTGTGCACGTGCAACG | 0.19
GTTGTCACGTGCGAGT | 0.09
GAAGGCACGTGTTCGT | -0.04
CGTATCACGTGTGGGC | 0.13
GAGGCCACGTGGTTGT | -0.12
AGGGACACGTGGTTGA | -0.04
CGCCACACGTGGGGGG | -0.14
CAAGGCACGTGGTAAG | -0.15
TCGTTCACGTGGCTGA | 0.36
GGAAGCACGTGATGTC | 0.13
AGCAGCACGTGTGGGG | -0.17
ATGGACACGTGGTATA | -0.15

Sequence | relative binding free energy [kcal/mol]
TTTCACACGTGGTTAT | -0.04
AAATGCACGTGTGGGT | 0.04
GGCGTCACGTGTGGAT | 0.16
CGATTCACGTGGTGAT | 0.12
CTGATCACGTGTGGTT | 0.19
GGTGCCACGTGGGGTA | -0.23
ATGGTCACGTGTGGTT | 0.15
GGGCGCACGTGTTTGA | -0.03
ATTGTCACGTGAGGGG | 0.33
TAAGGCACGTGTGAAT | 0.07
TTGCTCACGTGGGAGC | 0.26
CGTTTCACGTGGCTGG | 0.28
TGAGTCACGTGAAAAT | 0.37
TGCGGCACGTGACTGG | -0.02
TTGCGCACGTGGGCTG | -0.25
AAACGCACGTGTAGGG | -0.09
TTGAACACGTGTTTGC | 0.04
ATCATCACGTGTTTTG | 0.18
TTATACACGTGGGGCG | -0.02
AGTATCACGTGAGGGA | 0.31
AAAATCACGTGGGCGT | 0.08
GGGGTCACGTGTAGAA | 0.32
CGTTGCACGTGGACGG | -0.03
GGTTGCACGTGCGTTT | 0.07
GATGGCACGTGGGTGG | -0.07
GCGTACACGTGGGATT | 0.22

Sequence | relative binding free energy [kcal/mol]
TGGCACACGTGAGGGT | 0.28
TTGGACACGTGCAGGT | 0.09
CAGGCCACGTGTTTTG | 0
GTTAGCACGTGGTGGT | -0.11
TCTTTCACGTGTAGAT | 0.39
TCAGTCACGTGGTGCG | 0.06
CGAAGCACGTGGTTTG | -0.11
GTGTACACGTGCAAGG | -0.02
GATTCCACGTGTGTGT | 0.1
CGACGCACGTGGTGGG | -0.14
CGACTCACGTGGTTTT | 0.25
AATTGCACGTGGGGCA | -0.3
GGAGGCACGTGTTCGG | -0.15
AAGTTCACGTGGGTTC | 0.15
CTTGGCACGTGTTAGT | -0.11
TGTGTCACGTGAACGG | 0.35
AGAGGCACGTGCTTGG | -0.25
TGAGGCACGTGGGTCC | -0.28
AGAGACACGTGTGAGG | 0.15
CATTACACGTGTATGG | 0.09
TGCGTCACGTGTGCAT | 0.22
TGAGTCACGTGTGGCC | 0.14
AAGGGCACGTGCGCGG | -0.27
ATGAACACGTGAGGGA | 0.28
GGAGGCACGTGGCGCT | -0.21
TATATCACGTGCGGGG | 0.13

Sequence | relative binding free energy [kcal/mol]
TTGCTCACGTGGGGAG | 0.11
AGGGGCACGTGCCGGC | -0.24
GTAGTCACGTGCGGCG | 0.08
TGAGCCACGTGGTGTG | -0.28
CGGTTCACGTGTTGTC | 0.46
GATTCCACGTGTTGGG | 0.25
TTCGTCACGTGATATT | 0.17
TTCAGCACGTGCTTGT | 0.04
TGGGTCACGTGAGCAA | 0.25
TAGTTCACGTGCTTTC | 0.33
GTGTGCACGTGGGCAA | -0.21
TGAGTCACGTGTCGTC | 0.19
GTGGACACGTGAAATT | 0.33
TGTCTCACGTGTGAGT | 0.14
GGTTGCACGTGCAAGT | 0.03
GTCGGCACGTGCGTGA | -0.02
TTTCTCACGTGAGTTT | 0.45
GTTGGCACGTGTGACA | -0.06
ATTAACACGTGTTGAG | 0
CGATTCACGTGGGGTC | 0.1
TTTGGCACGTGAGATG | 0.06
GTAGCCACGTGATTGG | 0.18
TTATCCACGTGGGGTT | -0.06
CTAGTCACGTGAGGAT | 0.25
AGCAGCACGTGGTAGT | -0.22
CGTTTCACGTGATATA | 0.26

Sequence | relative binding free energy [kcal/mol]
TGGTTCACGTGTATAC | 0.29
ACTTTCACGTGAAGTT | 0.46
GAGAGCACGTGGTACG | -0.07
GAGGCCACGTGGAAGT | 0.18
CTTTACACGTGATTTA | 0.31
TTAGTCACGTGGGGAG | -0.08
GAAGGCACGTGGTGCA | -0.15
TGACGCACGTGAGAGG | 0.12
TTAGACACGTGAGTGA | 0.22
AAGTGCACGTGGGGTG | -0.18
ATTGTCACGTGTTCGT | 0
CAGGTCACGTGGATAG | 0.1
GTAAGCACGTGGGCAG | -0.11
TGTATCACGTGTTGTC | 0.15
AGGAACACGTGCGGGT | 0.03
GTATTCACGTGCGATT | 0.23
AGAGACACGTGGTGTA | -0.08
TTGTTCACGTGTGCCA | 0.32
CGGGACACGTGGTGCT | -0.05
TGGTTCACGTGTTAGA | 0.34
AGTGTCACGTGTTTGT | -0.02
GCTCTCACGTGTGTGT | 0.32
